According to patent US12290565B2, “Methods of using anti-PSGL-1 antibodies in combination with JAK inhibitors to treat T-cell mediated inflammatory diseases or cancers” (AltruBio Inc., priority 2021, dated 2025):

Assays:
activated T cells [1] = experiment: Fixed-ratio combination cytotoxicity assay, ruxolitinib + 15A7H (Chou-Talalay, Calcusyn); type: cell-based, human; conditions: RUXO + 15A7H; for DRI15A7H (Dose-Reduction Index): EC50 level
Experimental: T cell stimulation was achieved through Phytohemagglutinin-L (PHA) treatment prior to the apoptosis assays described below. In brief, human blood samples used in the study were obtained from heathy human donors. […] The buffy coat layer containing mononuclear cells was collected and washed 3 times with phosphate-buffered saline (PBS) to minimize platelet contamination.
Activated T cells were seeded in 96-well plates at 1-1.5×10^5 cells/mL and were treated with ruxolitinib and antibody 15A7H alone, or in combination at fixed concentration ratios. For the combination of ruxolitinib and antibody 15A7H, fixed ratios at 3.3:1 and 1.1:1 were tested on T cells from four donors. In addition, a fixed ratio of ruxolitinib and antibody 15A7H of 0.37:1 was tested on T cells from two donors.
Cell apoptosis was measured using an Annexin-V FITC Apoptosis Detection Kit (Strong Biotech, AVK250), according to the manufacturer's instructions.
Results were expressed as apoptosis fractions (fraction affected), based on the measured fluorescence counts of treated samples, compared with that of untreated controls. Seven diagonals representing various dose-effect curves with fixed drug ratios were used to measure the combination indexes (CI) for each of the combinations with Calcusyn software (Biosoft). The combinatorial effect was defined as “synergistic”, “additive” or “antagonistic” when CI was <1, 1 and >1, respectively.

[2] = tested on: xenogeneic GvHD in ASID mice engrafted with human PBMCs; experiment: Xenogeneic graft-versus-host disease (GvHD) mouse model, survival; type: in vivo; conditions: ruxolitinib 45 mg/kg oral twice daily 15 days and/or 15A7H 10 mg/kg i.v. every 3 to 4 days, 5 doses
Experimental: 8-9 weeks old female Advanced Severe Immuno-Deficiency (ASID) mice (NOD.Cg-Prkdc^scidIl2rg^tm1Wjl/YckNarl; NLAC NARLabs Taiwan) received a total body irradiation dose of 2.0 Gy and were engrafted with 3×10^6 human PBMCs by tail vein injection at 24 hours post irradiation. The mice were kept under pathogen-free conditions and reared under standardized methods as temperature set at 22±1° C. with a 12-hour daylight/dark cycle and full access to food and water. Experimental animals were randomly divided into treatment groups after receiving a minimum of 3 days of acclimatization to the environment.
Xenogeneic GvHD (xGvHD) was induced in ASID mice receiving 3×10^6 human PBMCs (n=5-7 per group). Post 72 hours of human PBMC engraftment, ruxolitinib at 45 mg/kg or vehicle was orally administered twice daily for 15 days, as well as anti-PSGL-1 15A7H antibody at 10 mg/kg or vehicle was intravenously administered every 3 to 4 days for total 5 doses. Mice were assessed for survival daily. The time of the treatment initiated was designated as Day 1.

activated T cells [3] = experiment: T cell apoptosis assay (Annexin V/PI FACS), 15A7H and/or ruxolitinib; type: cell-based, human
Experimental: T cell stimulation was achieved through Phytohemagglutinin-L (PHA) treatment prior to the apoptosis assays described below. In brief, human blood samples used in the study were obtained from heathy human donors. Peripheral blood mononuclear cells (PBMCs) were freshly isolated from whole blood by Ficoll-Hypaque gradient centrifugation (Ficoll-Paque PLUS, GE Healthcare, Cat #17-1440-03) at 2400 revolutions per minute (rpm) for 15 minutes at room temperature. The buffy coat layer containing mononuclear cells was collected and washed 3 times with phosphate-buffered saline (PBS) to minimize platelet contamination. […]
Fluorescence-activated cell sorting (FACS) analysis using the Annexin V/propidium iodide (PI) staining method was used to determine the apoptotic rate in drug- and control-treated cells. […]
Samples were run on a flow cytometer (BD LSR scanner; BD Biosciences, San Diego), and cell viability and apoptosis were calculated using a quadrant on the Annexin-V-FITC/PI histogram. Living cells were identified as those negatively stained for both fluorescence dyes, early apoptotic cells were identified as those only Annexin-V-FITC-positive, necrotic cells were identified as those only PI-positive, and late apoptotic cells were identified as those positively stained for both fluorescence dyes. […]

[4] = tested on: patients with SR-aGVHD or TR-aGVHD; experiment: Phase 1 open-label study of 15A7H in SR-aGVHD or TR-aGVHD; type: in vivo, human; conditions: 6-4-4-4 mg/kg weekly regimen
Experimental: Anti-PSGL-1 antibody 15A7H was tested in patients with SR-aGVHD or TR-aGVHD using multiple doses of antibody. Study participants were assigned to receive a first dose of antibody 15A7H at 6 mg/kg, followed by weekly doses of antibody 15A7H at 4 mg/kg for 3 weeks (6-4-4-4 regimen).
This study included patients with SR-aGVHD without any prior systemic treatment other than corticosteroids, as well as patients with TR-aGVHD with one prior systemic treatment for aGVHD, including JAK inhibitors, in addition to corticosteroids. Participants treated with antibody 15A7H in combination with an additional systemic treatment were also included in the study.
An analysis of efficacy was conducted after enrollment of 24 participants in this study to determine the likelihood of reaching pre-established futility criteria. Of 24 participants, 12 participants were categorized as steroid refractory (SR) and 12 participants as treatment refractory (TR).

activated T cells [5] = experiment: Fixed-ratio combination cytotoxicity assay, ruxolitinib + LH10, c43B6 or h9F9; type: cell-based; conditions: antibody with cross-linker
Experimental: PBMCs were obtained from peripheral blood of healthy donors. Isolation was performed by density centrifugation of blood on Ficoll (GE Healthcare, Cat #17-1440-03). The harvested PBMCs were used for the generation of activated T cells by incubating with PHA (3 μg/mL, SIGMA, Cat: L2769-10 mg) in RPMI-1640 medium (10% FBS, 1% Penicillin/Streptomycin and 2-Mercaptoethanol) for 2 days, followed by maintenance in medium containing recombinant human Interleukin-2 (5 ng/mL, R&D Systems, Cat. #202-IL-050) for an additional between about 4˜6 days.
In addition to 15A7H, anti-PSGL-1 antibodies LH10, c43B6 and h9F9 were tested for the ability to induce cell death in activated T cells. The purpose of this study was to determine whether apoptosis inducing anti-PSGL-1 antibodies plus ruxolitinib would result in a better cytotoxic effect on activated T cells. The combinatorial effect was evaluated using Chou-Talalay median effect analysis using fixed ratios of antibodies and ruxolitinib in cytotoxicity assays. […]
Cell apoptosis was determined as described in Example 1, and the combinatorial drug effect combination indexes (CI) were analyzed using CalcuSyn (Biosoft, Ferguson, MO, USA), which allows automated simulation of synergism or antagonism, where CI<1 indicates synergy, CI=1 indicates additivity, and CI>1 indicates antagonism.

B1: 15A7H: anti-PSGL-1 antibody, IgG4 hinge S228P; light chain SEQ ID NO:1, heavy chain SEQ ID NO:2 (antibody)
heavy: EVQLVESGGGLVQPGGSLRLSCAASGFTFSSFGMHWVRQAPGKGLEWVAYINGGSSTIFYANAVKGRFTISRDNAKNTLYLQMNSLRAEDTAVYYCARYASYGGGAMDYWGQGTLVTVSSASTKGPSVFPLAPCSRSTSESTAALGCLVKDYFPEPVTVSWNSGALTSGVHTFPAVLQSSGLYSLSSVVTVPSSSLGTKTYTCNVDHKPSNTKVDKRV[human IgG4 Fc with S228P (EU numbers) omitted here]
light: DIQMTQSPSSLSASVGDRVTITCRSSQSIVHNDGNTYFEWYQQKPGKAPKLLIYKVSNRFSGVPSRFSGSGSGTHFTLTISSLQPEDFATYYCFQGSYVPLTFGQGTKVEIKRTVAAPSVFIFPPSDEQLKSGTASVVCLLNNFYPREAKVQWKVDNALQSGNSQESVTEQDSKDSTYSLSSTLTLSKADYEKHKVYACEVTHQGLSSPVTKSFNRGEC
EC5015A7H Combination Treatment (activated T cells [1]; donor N084, ratio 1.1:1): 0.1810 µg/mL | DRI15A7H (Dose-Reduction Index) (activated T cells [1]; donor N084, ratio 1.1:1): 1.8093 | EC5015A7H Combination Treatment (activated T cells [1]; donor N084, ratio 3.3:1): 0.1118 µg/mL | DRI15A7H (Dose-Reduction Index) (activated T cells [1]; donor N084, ratio 3.3:1): 2.9286 | EC5015A7H Combination Treatment (activated T cells [1]; donor N089, ratio 1.1:1): 0.3544 µg/mL | DRI15A7H (Dose-Reduction Index) (activated T cells [1]; donor N089, ratio 1.1:1): 2.3009 | EC5015A7H Combination Treatment (activated T cells [1]; donor N089, ratio 3.3:1): 0.1436 µg/mL | DRI15A7H (Dose-Reduction Index) (activated T cells [1]; donor N089, ratio 3.3:1): 6.0249 | EC5015A7H Combination Treatment (activated T cells [1]; donor N102, ratio 0.37:1): 0.4450 µg/mL | DRI15A7H (Dose-Reduction Index) (activated T cells [1]; donor N102, ratio 0.37:1): 2.1549 | EC5015A7H Combination Treatment (activated T cells [1]; donor N102, ratio 1.1:1): 0.4494 µg/mL | DRI15A7H (Dose-Reduction Index) (activated T cells [1]; donor N102, ratio 1.1:1): 2.1339 | EC5015A7H Combination Treatment (activated T cells [1]; donor N102, ratio 3.3:1): 0.3456 µg/mL | DRI15A7H (Dose-Reduction Index) (activated T cells [1]; donor N102, ratio 3.3:1): 2.7749 | EC5015A7H Combination Treatment (activated T cells [1]; donor N103, ratio 0.37:1): 0.7192 µg/mL | DRI15A7H (Dose-Reduction Index) (activated T cells [1]; donor N103, ratio 0.37:1): 1.9508 | EC5015A7H Combination Treatment (activated T cells [1]; donor N103, ratio 1.1:1): 0.4984 µg/mL | DRI15A7H (Dose-Reduction Index) (activated T cells [1]; donor N103, ratio 1.1:1): 2.8153 | EC5015A7H Combination Treatment (activated T cells [1]; donor N103, ratio 3.3:1): 0.3026 µg/mL | DRI15A7H (Dose-Reduction Index) (activated T cells [1]; donor N103, ratio 3.3:1): 4.6368 | effect on xenogeneic GVHD induced by human lymphocytes [2]: ameliorated xenogeneic GVHD | apoptosis-induction in activated T cells (activated T cells [3]; 15A7H alone at 3 μg/mL, with antibody cross-linker, 48 hours, three donors): optimal apoptosis-induction | apoptosis-induction in activated T cells (activated T cells [3]; 15A7H alone at sub-optimal 0.03 μg/mL and 0.3 μg/mL, depending on the donor): minimal to medium apoptosis-induction | Overall Response ([4]; steroid refractory (SR) participants, 4/12): 33% | Overall Response ([4]; treatment refractory (TR) participants, 8/12): 67%

B2: c43B6: anti-PSGL-1 antibody; heavy chain SEQ ID NO:27, light chain SEQ ID NO:31 (antibody)
heavy: EVQLQQSGPDLVKPGALVKISCKASGYSFTAYYIHWVKQSHGKSLEWIGRVNPNTGGTSYNPKFKGKAILNVDKSSSTAYMELRSLTSEDSAVYYCARSGSPYYRYDDWGQGTTLTVSSASTKGPSVFPLAPCSRSTSESTAALGCLVKDYFPEPVTVSWNSGALTSGVHTFPAVLQSSGLYSLSSVVTVPSSSLGTKTYTCNVDHKPSNTKVDKRV[human IgG4 Fc with S228P (EU numbers) omitted here]
light: ENVLTQSPAIMSASPGEKVTMTCRASSTVNSTYLHWFQQKSGASPKLWIYGSSNLASGVPARFSGSGSGTSYSLTISSVEAEDAATYYCQQYSGYPLTFGAGTTLELKRTVAAPSVFIFPPSDEQLKSGTASVVCLLNNFYPREAKVQWKVDNALQSGNSQESVTEQDSKDSTYSLSSTLTLSKADYEKHKVYACEVTHQGLSSPVTKSFNRGEC
cytotoxicity ability in activated T cells (activated T cells [5]): had cytotoxicity ability
